Where two headings read alike, the source gives them in different places.
How the values were obtained:
Male Swiss albino mice = details: for PMNx10^6/mouse (time 4h) / mono-mø x10^6/mouse (time 24h): 1 mg/kg i.v. 2 h after zymosan 1 mg/0.5 ml i.p.; for % reduction of PMN (time 4h) / % reduction of mono-mø (time 24h): 1 mg/kg i.v. 2 h after zymosan i.p., vs vehicle
[1] = test system: Human airway smooth muscle cells; details: 10% FCS, 24 h

| SMILES | PMNx10^6/mouse (time 4h) (Male Swiss albino mice) | mono-mø x10^6/mouse (time 24h) (Male Swiss albino mice) | % reduction of PMN (time 4h) (Male Swiss albino mice) [%] | % reduction of mono-mø (time 24h) (Male Swiss albino mice) [%] | 3H-thymidine (CPMx1000) ([1]; concentration −5 logM) | 3H-thymidine (CPMx1000) ([1]; concentration −7 logM) |
| --- | --- | --- | --- | --- | --- | --- |
| C[C@@H]1C[C@H]2[C@@H]3CCC4=CC(=O)C=C[C@]4(C)[C@@]3(F)[C@@H](O)C[C@]2(C)[C@@]1(O)C(=O)COC(=O)CCCO[N+](=O)[O-] [DXN, Dexamethasone 21-(4-nitrooxybutyrate)] | 4.5 ± 0.3 x10^6/mouse | 4.5 ± 0.6 x10^6/mouse | 55.4 | 48.8 | 10.8 | 12.6 |
| C[C@@H]1C[C@H]2[C@@H]3CCC4=CC(=O)C=C[C@]4(C)[C@@]3(F)[C@@H](O)C[C@]2(C)[C@@]1(O)C(=O)CO [Dexamethasone, reference compound] | 6.4 ± 0.4 x10^6/mouse | 6.3 ± 0.2 x10^6/mouse | 36.6 | 28.4 | 14.1 | 15.0 |
